# PubChem BioAssay AID2675 (National Center for Advancing Translational Sciences (NCATS), 2010)
# Among all 280,000 compounds or so, about 100 (0.036%) were called active. Inconclusive means that the source gave no clear call. Such entries were picked first, then a sample of the others. The call rests on the fitted dose curve; in most records, active means well fitted inhibition curve with a large enough effect in the signal ratio, with a control signal flat (not every such curve was filed as active); inconclusive means small, poorly fitted or top-dose-only effect, or effect the other way, or a change in a side signal; inactive means no such curve, though single readings can be large or run the other way; the % refers to the signal ratio. Potencies beside an inconclusive call are fits to weak or partial responses and may not hold up. “Side channel” marks fits to a control or component signal instead of the main read-out.
# Target: Muscleblind-like protein 1 (Homo sapiens) (UniProt Q9NR56)
# Assay: qHTS Assay for Inhibitors of MBNL1-poly(CUG) RNA binding
# Settings: TR-FRET MBNL1-His/biotin-(CUG)12 binding, 665/545 ratio; series mostly up to 57.5 µM
# Method in brief: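 Compounds (final 92 nM to 58 uM) are added to His-tagged MBNL1 and biotin-(CUG)12, then terbium anti-His antibody and streptavidin-XL665 (5 nM final). After 60 min at room temperature, the 665/545 nm ratio is read.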
# Potency means the concentration at half of the fitted maximal effect; tags describe the fitted curve by direction and shape or compound fluorescence and quenching.
# Sequence of UniProt Q9NR56 (Q9NR56 whole entry, looked up): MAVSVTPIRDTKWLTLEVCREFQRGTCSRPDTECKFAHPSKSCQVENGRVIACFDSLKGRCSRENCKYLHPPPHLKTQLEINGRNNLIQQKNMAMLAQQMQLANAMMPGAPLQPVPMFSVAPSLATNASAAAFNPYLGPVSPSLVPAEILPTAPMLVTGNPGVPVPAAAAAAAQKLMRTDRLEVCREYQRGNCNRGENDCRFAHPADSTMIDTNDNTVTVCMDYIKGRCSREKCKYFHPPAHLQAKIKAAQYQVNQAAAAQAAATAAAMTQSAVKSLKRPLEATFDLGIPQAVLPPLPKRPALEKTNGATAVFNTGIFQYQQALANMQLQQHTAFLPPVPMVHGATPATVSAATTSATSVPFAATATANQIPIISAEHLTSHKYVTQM
row,Structure (SMILES),Potency
1,Cc1ccc(C2/C(=C(\O)c3ccc4c(c3)OCCO4)C(=O)C(=O)N2CC2CCCO2)cc1 (stereo unspecified),inactive
2,Cc1c(OC(C)C(=O)NCCN2CCOCC2)ccc2c(-c3ccccc3)cc(=O)oc12 (stereo unspecified),"inconclusive: 15.8 µM [quencher, partial curve]"
3,O=C(Nc1ccc(S(=O)(=O)N2CCOCC2)cc1)c1cccc([N+](=O)[O-])c1,"inconclusive: 12.6 µM [quencher, side channel, partial curve]"
4,Cc1cc(N2CCOCC2)nc2ccc(NC(=S)NC(C)C)cc12,inactive
5,CC(C)(C)C(=O)C1=C(O)C(=O)N(Cc2ccccc2)C1c1ccccc1Cl (stereo unspecified),inactive
6,S=c1nc2c(n[nH]1)c1ccccc1n2CCc1ccccc1,"inconclusive: 5.01 µM [quencher, side channel, full curve]"
7,COC(=O)CSCc1nc2ccccc2[nH]c1=O,inactive
8,O=C(Nc1ccc(Br)cc1)c1cc([N+](=O)[O-])cc([N+](=O)[O-])c1,"inconclusive: 3.16 µM [quencher, full curve]"
9,CCOC(=O)c1cnc(-n2nc(C)cc2C)nc1NC1CCCCC1,inactive
10,CCc1cccc(C)c1NC(=O)CN(C)Cc1ccccc1F,"inconclusive: 5.01 µM [quencher, side channel, single point]"
11,Cc1sc(-n2c(C)ccc2C)c(C#N)c1C,inactive
12,COc1ccc(OC)c2nc(-c3ccc4c(c3)OCO4)ccc12,"inconclusive: 12.6 µM [quencher, side channel, partial curve]"
13,CC1CCCN(C(=O)CSc2nc3ncccc3[nH]2)C1 (stereo unspecified),inactive
14,CN(Cc1ccccc1)C(=O)c1ccc(Cl)c([N+](=O)[O-])c1,"inconclusive: 39.8 µM [quencher, side channel, single point]"
15,O=[N+]([O-])c1ccc(-c2cn3c(n2)CCC3)cc1,"inconclusive: 10 µM [quencher, partial curve]"
16,O=C1c2cccnc2C(=O)N1c1cccc([N+](=O)[O-])c1,"inconclusive: 12.6 µM [quencher, side channel, partial curve]"
17,CN(CCO)c1cc(N2CCCCC2)c2nonc2c1[N+](=O)[O-],"inconclusive: 15.8 µM [quencher, partial curve]"
18,CN(C)C(=O)C1C2NC(=S)N(c3cccc(Cl)c3)C1(C)Oc1ccc(Cl)cc12 (stereo unspecified),inactive
19,COC(=O)c1cccnc1-n1c(=O)c2cccnc2n(Cc2cccc([N+](=O)[O-])c2)c1=O,"inconclusive: 35.5 µM [quencher, side channel, single point]"
20,CCCOc1ccc(-c2c(C(=O)N/N=C/c3ccc(OC)cc3)nnn2-c2nonc2N)cc1,inactive
21,C=CCc1cccc(/C=N/NC(=O)CNc2cccc3ccccc23)c1O,inactive

row,Structure (SMILES),Potency
1,Cc1ccc(C(C)C)c(OCC(O)CN2CCN(CCO)CC2)c1 (stereo unspecified),"inconclusive: 0.794 µM [quencher, side channel, partial curve, poor fit]"
2,O=c1c(O)cccc2cc(O)c(O)c(O)c12,"inconclusive: 20 µM [quencher, side channel, partial curve]"
3,O=C(O)CCCNc1cc(N2CCN(C(=O)c3ccco3)CC2)c2noc3c2c1C(=O)c1ccccc1-3,"inconclusive: 10 µM [quencher, side channel, partial curve]"
4,CCOn1c(=O)c(-c2cccs2)[n+]([O-])c2ccccc21,"inconclusive: 20 µM [quencher, side channel, partial curve]"
5,O=C1c2cccc3cccc(c23)C(=O)N1c1ccc(O)cc1,"inconclusive: 7.94 µM [quencher, side channel, full curve]"
6,CC(=O)NC(CC(=O)OCC(=O)c1c(N)n(C)c(=O)n(C)c1=O)c1ccccc1 (stereo unspecified),inactive
7,COCCNC(=O)Nc1ccc2nc(-c3ccco3)c(-c3ccco3)nc2c1,"inconclusive: 14.1 µM [quencher, side channel, partial curve]"
8,COc1cc([N+](=O)[O-])ccc1NC(=S)Nn1cnnc1,"inconclusive: 14.1 µM [quencher, side channel, partial curve]"
9,Cc1cc(NC(=O)CSc2nnc(-c3ccc(O)cc3)o2)no1,inactive
10,O=C(Nc1c2c(nn1-c1ccc([N+](=O)[O-])cc1)CS(=O)(=O)C2)c1ccco1,"inconclusive: 8.91 µM [quencher, side channel, partial curve]"
11,O=C(NNC(=O)c1ccccc1C(=O)O)c1cc2ccccc2o1,"inconclusive: 50.1 µM [quencher, side channel, partial curve, poor fit]"
12,CCCC(c1nnnn1CCOC)N(Cc1cc2cc(C)c(C)cc2[nH]c1=O)CC1CCCO1 (stereo unspecified),"inconclusive: 11.2 µM [quencher, side channel, partial curve]"
13,Cc1cccc(NC(=O)c2ccc3nccnc3c2)n1,"inconclusive: 15.8 µM [quencher, partial curve]"
14,O=C(COC(=O)CNC(=O)c1cccc([N+](=O)[O-])c1)Nc1ccccc1OC(F)F,"inconclusive: 8.91 µM [quencher, side channel, partial curve]"
15,CCOC(=O)/C(C#N)=C/c1cc2ccccc2nc1N1CCCCC1,inactive
16,CCOC(=O)c1nn(-c2ccc(C)c(Cl)c2)c(=O)c(C#N)c1C,"inconclusive: 3.16 µM [quencher, side channel, full curve]"
17,CC(=O)c1sc2c(c1N)c(=O)[nH]c(=O)n2-c1ccccc1,"inconclusive: 17.8 µM [quencher, side channel, partial curve]"
18,COc1ccc(/C(N)=N/OC(=O)Cc2cccs2)cc1,inactive
19,O=C(NC(=S)NCc1ccccc1)c1ccc2c(c1)OCO2,"inconclusive: 0.282 µM [fluorescent, side channel, full curve]"
20,CCCC(=O)Nc1ccc(C(=O)N/N=C/c2ccc([N+](=O)[O-])o2)cc1,"inconclusive: 7.08 µM [quencher, side channel, partial curve]"
